Results: the supplement of paper PMC3334620
Over roughly 33,000 sequences, “E-score (-0.5 to 0.5)” has its median near -0.054; the highest 2% begin near 0.39. This is one part of the list.

What follows are sequences tested against Ylr278c (UniProt Q05854) (assay: PBM E-score (8-mer binding enrichment) (E-score (-0.5 to 0.5)); higher = stronger / more preferred TF binding; most listed sequences are background and not binding sites). Settings: protein concentration: 200 nM; construct: GST-DNA-binding domain.
Protocol: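 Universal 'all 10-mer' protein binding microarrays (Agilent AMADID 015681) probed with GST-tagged S. cerevisiae TFs (full-length or DBD) made by in vitro transcription/translation (PURExpress), about 100-200 nM. Bound TF was detected with fluorescent anti-GST. Each ungapped 8-mer (which stands for itself and its reverse complement) is scored by the PBM enrichment score (E-score), a modified Wilcoxon-Mann-Whitney statistic from -0.5 to +0.5, computed with the Universal PBM Analysis Suite. Scale: above 0.35 generally sequence-specific binding.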

Sequence	PBM E-score
TACCGCGA	0.176
GTGAAAGA	-0.0289
CTGACCTC	-0.0797
AGTAGTTG	-0.00509
ATCAGAAG	-0.123
AGGCAGCG	-0.0733
CACCTCAC	0.0836
CTTGTATC	-0.178
GCCGGACC	0.376
GATGTCCA	-0.0382
TGAGTGAA	-0.0748
GTAGGGCA	-0.038
ATCCCTTG	-0.22
CAAGGAAG	-0.0653
GAGATACC	0.0878
ATCCCACA	-0.156
ATTCAGCC	-0.0641
ACGGGGTC	0.215
ACGGCGCA	0.162
CGAAAGAC	0.133
GGTGTAAC	0.121
CATTAGTC	0.0466
ACCGTTGG	-0.056
ACATGAGG	-0.224
CTTTTACA	0.0358

Sequence	PBM E-score
GCAGGCCA	-0.171
GAATATGA	-0.0336
AGGGTCTA	-0.0719
GAAAGAGC	-0.0143
CCCAAACG	-0.13
ATGCACGG	0.175
CCCACGGC	0.0615
CGCTTCAG	0.0182
GCACCTCA	-0.00496
CATCTTAA	-0.105
CGAGGTAG	-0.0404
AACCTGAG	-0.106
CTCAACGC	-0.253
AAATGACG	-0.0163
ACAACCCA	0.0408
AGTGCATC	-0.0992
AAGGGAGG	-0.049
AAGGCGGA	0.379
CGTCGACG	0.2
GTAGTTGA	-0.0594
CATGCGGA	0.317
CCAGGATA	-0.177
AGTGCACC	0.0387
ACACACAG	-0.189
ACGTTATA	-0.148

Sequence	PBM E-score
ATGATGAG	-0.171
CGCACCCA	-0.1
CAGCACGC	-0.0616
GTCTACTA	-0.0894
ACAACGGC	0.0852
CAAAATAG	-0.0851
AGCGACAG	0.0279
AGCATGGA	-0.201
CATCAAGA	-0.0517
AACGTAAC	-0.164
AAAAGTCT	-0.193
TGAATACA	-0.0137
AAGTCGTA	-0.288
ATATATCG	0.194
ACTCCCTG	-0.139
GGGGGCAA	-0.181
CAGACCTC	-0.0869
CAGGGCAA	-0.101
AGTCAACA	-0.216
GTACAATA	-0.196
TACGGCGA	0.175
AGAGCATC	-0.0667
GGCGGCGA	0.306
CCGAGTAC	0.238
CCTATAAC	-0.286

Sequence	PBM E-score
CACCCGAG	-0.0153
ACTTGGCT	-0.241
AGCTATTC	-0.0803
GGCGCTCA	0.109
CTAACAGA	-0.0664
GATCTCCC	0.113
ACAACAAT	-0.0912
ATGCAGTC	-0.252
AGCTCCTG	-0.0626
AATAAAGG	-0.223
TGAGTTAA	-0.24
CCCAAGAG	-0.231
AGGGCACC	-0.13
AGAAGCCG	0.241
AGCGACTC	-0.142
GTGGTGTA	-0.161
GCTAGTCA	-0.197
CGCAGAGA	-0.193
GGTGAAAA	0.223
AATAAATA	0.181
AGAGGGGC	-0.281
GCTGTAAC	-0.0124
AATCACCC	-0.0315
AAAGATAC	-0.0541
ACCGCCTC	3e-05

Sequence	PBM E-score
AAGGCAAC	-0.135
ACGGGACA	0.167
CAGATTTA	0.00436
AAGGTCGC	0.191
ACAGATCT	-0.152
CTATTCAG	-0.197
AATTGAGG	-0.0607
AAGATCCT	-0.0497
GCCCAAGA	-0.231
ATATATCA	-0.126
GTGCATAA	-0.0366
GTGGTCCA	-0.103
ACCAAACT	-0.0836
ACCATGAA	0.00221
AGTTGGCC	-0.107
GCTTCCAC	-0.0744
CGGGCGCC	0.156
ATGCCAGA	-0.22
ATTAGATG	0.0723
CATTCAAC	-0.216
TAAGGGAA	-0.337
CATCCGGC	0.354
TTAAAGAA	-0.0554
CGTTATAC	-0.218
CCTCGGCC	0.208

Sequence	PBM E-score
ACACCCAC	-0.0479
CAAATAAG	0.0116
AGTAACTA	0.0258
TCACTAGA	-0.0693
CTTAGTCC	0.118
CGTGTGGA	0.0441
TAGCCGAA	0.141
TACCGCTA	-0.0523
AGAACCGC	0.0176
AGACACTC	-0.184
CAGTAATG	-0.185
ATACTCTA	-0.0612
GTCGCCGA	0.244
AACCCGTC	-0.0153
GCAGTAAC	-0.161
ACTTCAAC	-0.0372
AAAAACTA	-0.0189
GAGACACA	-0.0728
CAGGGATC	-0.153
GACAAATA	0.1
AGGACTCG	-0.213
TGATTGCA	-0.0457
ACCCGCAC	0.159
CAGACGGG	-0.0456
AGGATTGC	-0.131

Sequence	PBM E-score
AAATCCCG	0.426
CGCCGCTC	0.242
ATGATATC	-0.0378
ATGAGCCA	-0.195
CCCCACGC	-0.208
CCCGCCTA	0.166
GGATTAAC	0.19
AATAAGAC	-0.228
CGTCTAGC	-0.186
AAGCCCGA	0.27
CGAGAATC	0.00888
ATCGACCA	-0.326
ACACAATC	0.0663
TGTCAGAA	-0.26
GCTACAAA	-0.0551
ACGTTGAA	-0.0117
ATGCAACC	-0.0762
CACTATTC	-0.0246
CATGCACG	-0.181
AAGGATGA	-0.272
AAGTTCGG	0.28
CTGGACCA	-0.213
